Fractional viability data for 35 compounds are collected here from the supplement of paper PMC5919970.

The structures appear in SMILES notation. Where a name gives a salt, the structure may show the parent alone. In all, about 2,000 compounds were measured (“fractional viability relative to vehicle”: median about 0.92, lowest 2% from about 0.11 on). This is one part of the list.

The assay relates to TYKNU. In words: fractional viability relative to vehicle; TYKNU is a high-grade serous ovarian cancer line; higher = less growth inhibition. The settings on record: 72 h, genotype: OPA1 knockout (sgOPA1 #2). The procedure, abridged: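 TYKNU control cells or lentiCRISPRv2 knockout derivatives were seeded at 500 cells per well into drug-stamped 384-well plates holding a ~2100-compound library at 2 or 10 μM, in duplicate. Cells were grown at 37 °C in 5% CO2 in RPMI 1640 with 10% FBS, and drug treatment lasted 72 h. Viability was read by Cell Titer Glo luminescence. Duplicate treatment wells were averaged and normalised to duplicate control wells from the same plate position.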

As to `CN(C)CCCn1cc(C2=C(c3c[nH]c4ccccc34)C(=O)NC2=O)c2ccccc21`, the fractional viability came out at 0.898 (2uM) and 0.766 (10uM).

In the case of `CC(=O)Oc1cc2c(s1)CCN(C(C(=O)C1CC1)c1ccccc1F)C2` (stereo not given) [Prasugrel], the fractional viability runs as follows: (2uM) 1.03; (10uM) 0.983.

In the case of `Cn1cnc([N+](=O)[O-])c1Sc1ncnc2[nH]cnc12` [Azathioprine], the fractional viability (2uM) came to 1.18 and the fractional viability (10uM) stood at 1.48.

Take `CC(C)C(=O)Nc1ccc([N+](=O)[O-])c(C(F)(F)F)c1` [Flutamide]: the fractional viability came to 0.974 (2uM) and 0.977 (10uM).

For `CC1(C)CCC2=C(O1)c1ccccc1C(=O)C2=O` [Beta-Lapachone], the fractional viability turned out to be 0.202 (2uM) and 0.0483 (10uM).

Regarding `CC(=O)OCC[N+](C)(C)C` [Acetylcholine Chloride], the fractional viability reads like this: (2uM) 0.913; (10uM) 0.867.

Take `OCCN1C[C@H](O)[C@@H](O)[C@H](O)[C@H]1CO` [Miglitol]: the fractional viability is 1.32 (2uM) and 0.92 (10uM).

For `S=C(NCc1ccc2c(c1)OCO2)N1CCN(c2ncnc3c2oc2ccccc23)CC1` [Amuvatinib (MP-470)], the fractional viability runs as follows: (2uM) 1.06; (10uM) 1.09.

Take `C[C@H](CCC(=O)O)[C@H]1CC[C@H]2[C@@H]3CC[C@@H]4C[C@H](O)CC[C@]4(C)[C@H]3CC[C@]12C` [Lithocholic acid]: the fractional viability reads like this: (2uM) 1.11; (10uM) 0.905.

For the compound `CC(=O)SCC(Cc1ccccc1)C(=O)NCC(=O)OCc1ccccc1` (stereo not given) [Racecadotril], the fractional viability worked out at 1.12 (2uM) and 0.988 (10uM).

As for `COC(=O)C1=C(C)NC(C)=C(C(=O)OC(C)C)C1c1cccc2nonc12` (stereo not given) [Isradipine], the fractional viability reads like this: (2uM) 1.17; (10uM) 0.858.

`Cn1c(Nc2ccc(C(F)(F)F)cc2)nc2cc(Oc3ccnc(-c4ncc(C(F)(F)F)[nH]4)c3)ccc21` gave a fractional viability (2uM) of 0.581 and a fractional viability (10uM) of 0.447.

With `CCOc1cc(C(C)(C)C)ccc1C1=N[C@@](C)(c2ccc(Cl)cc2)[C@@](C)(c2ccc(Cl)cc2)N1C(=O)N1CCN(CCCS(C)(=O)=O)CC1`, the fractional viability by setting is: (2uM) 0.49; (10uM) 0.469.

Take `O=C(O)CCCC[C@@H]1SC[C@@H]2NC(=O)N[C@@H]21` [Biotin (Vitamin B7)]: the fractional viability came out at 1.03 (2uM) and 1.04 (10uM).

`CCOC(=O)Nc1ccc(NCc2ccc(F)cc2)nc1N` [Flupirtine maleate] registered a fractional viability (2uM) of 1.34 and a fractional viability (10uM) of 1.13.

For `O=C(/C=C/N1C[C@H]2C[C@@H]1CN2c1ccccn1)c1ccccc1O`, the fractional viability was found to be 0.994 (2uM) and 0.926 (10uM).

`O=c1[nH]cnc2c1ncn2[C@H]1CC[C@@H](CO)O1` [Didanosine] yielded a fractional viability (2uM) of 1.08 and a fractional viability (10uM) of 0.935.

As for `CN(C/C=C/C#CC(C)(C)C)Cc1cccc2ccccc12` [Terbinafine], the fractional viability is, setting by setting: (2uM) 1.12; (10uM) 1.03.

On to `CN(C/C=C/C#CC(C)(C)C)Cc1cccc2ccccc12` [Terbinafine HCl], for which the fractional viability is, setting by setting: (2uM) 0.92; (10uM) 0.811.

Regarding `Fc1ccc([C@@H]2CCNC[C@H]2COc2ccc3c(c2)OCO3)cc1` [Paroxetine HCl], the fractional viability (2uM) worked out at 0.883 and the fractional viability (10uM) worked out at 0.439.

As to `Nc1nc(O)c2ncn(CCC(CO)CO)c2n1` [Penciclovir], the fractional viability (2uM) turned out to be 1.22 and the fractional viability (10uM) amounted to 0.916.

Take `C[C@H]1COc2c(N3CCN(C)CC3)c(F)cc3c(=O)c(C(=O)O)cn1c23` [Levofloxacin]: the fractional viability runs as follows: (2uM) 1.11; (10uM) 1.06.

For `NC(CO)C(=O)NNCc1ccc(O)c(O)c1O` (stereo not given) [Benserazide HCl], the fractional viability (2uM) turned out to be 1.12 and the fractional viability (10uM) worked out at 0.97.

As for `Nc1nc(Nc2ccc3c(c2)CCC(N2CCCC2)CC3)nn1-c1cc2c(nn1)-c1ccccc1CCC2` (stereo not given), the fractional viability was 0.566 (2uM) and 0.0864 (10uM).

With `CCCC(=O)OCOC(=O)C1=C(C)NC(C)=C(C(=O)OC)C1c1cccc(Cl)c1Cl` (stereo not given) [Clevidipine Butyrate], the fractional viability is 1.03 (2uM) and 1.08 (10uM).

On to `CCOC(=O)[C@H](CCc1ccccc1)N[C@@H](C)C(=O)N1Cc2cc(OC)c(OC)cc2C[C@H]1C(=O)O` [Moexipril HCl], for which the fractional viability was 1.04 (2uM) and 1.02 (10uM).

Turning to `O=c1[nH]cnc2[nH]ncc12` [Allopurinol Sodium], the fractional viability by setting is: (2uM) 1.13; (10uM) 1.02.

Consider `CN1CCN(C2CCN(C(=O)Nc3cc(Oc4ccc(NC(=O)C5(C(=O)Nc6ccc(F)cc6)CC5)c(F)c4)ccn3)CC2)CC1` [Golvatinib (E7050)], for which the fractional viability (2uM) was 0.92 and the fractional viability (10uM) is 0.485.

On to `C[N+](C)(C)CCO.[Cl-]` [Choline Chloride], for which the fractional viability by setting is: (2uM) 0.937; (10uM) 0.834.

On to `Clc1ccc(Nc2nnc(Cc3ccncc3)c3ccccc23)cc1` [Vatalanib (PTK787) 2HCl], for which the fractional viability by setting is: (2uM) 1.16; (10uM) 0.881.

`Cn1cc(-c2ccc3nnc(Sc4ccc5ncccc5c4)n3n2)cn1`: the fractional viability came out at 1.11 (2uM) and 0.982 (10uM).

For `Cc1cc(O)c2c(c1)C(=O)c1cc(O)cc(O)c1C2=O` [Emodin], the fractional viability (2uM) is 0.898 and the fractional viability (10uM) worked out at 0.917.

Take `O=C1NC(=O)/C(=C/c2cccc(C(F)(F)F)c2)S1`: the fractional viability reads like this: (2uM) 0.918; (10uM) 0.615.

Take `CC(C)CN(C[C@@H](O)[C@H](Cc1ccccc1)NC(=O)O[C@H]1CO[C@H]2OCC[C@H]21)S(=O)(=O)c1ccc(N)cc1` [Darunavir Ethanolate]: the fractional viability was found to be 1.26 (2uM) and 0.962 (10uM).

Compound `Cc1cc2c(F)c(Oc3ncnn4cc(OC[C@@H](C)O)c(C)c34)ccc2[nH]1` gave a fractional viability (2uM) of 1.03 and a fractional viability (10uM) of 0.73.
